# Some of the results follow.
# Assays:
# Test in all cases: glycan array binding signal (z-score within array); higher = stronger binding
# Conditions in all cases: glycan notation: IUPAC condensed, linker removed
# Gal(b1-3)GalNAc(b1-3)Gal = target: Gal(b1-3)GalNAc(b1-3)Gal
# Method in brief: (§1)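 Negative Z-scores can be read as non-binding. The Z-score is calculated within each array and then averaged across arrays of one protein sequence at different concentrations or buffers and across linkers. Arrays, 3228 in all, were curated from the Consortium for Functional Glycomics database and kept only where the protein sequence was available.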
# [1] = target: Gal(b1-3)GalNAc(b1-3)Gal(a1-4)Gal(b1-4)Glc
# Method in brief: as §1
# [2] = target: Gal(b1-3)GalNAc(b1-4)Gal(b1-4)Glc
# Method in brief: as §1
# [3] = target: Gal(b1-3)GalNAc(b1-4)[Neu5Ac(a2-3)]Gal(b1-4)Glc
# Method in brief: as §1
# Gal(b1-3)GlcNAc = target: Gal(b1-3)GlcNAc
# Method in brief: as §1
# [4] = target: Gal(b1-3)GlcNAc(a1-3)Gal(b1-4)GlcNAc
# Method in brief: as §1
# [5] = target: Gal(b1-3)GlcNAc(a1-6)Gal(b1-4)GlcNAc
# Method in brief: as §1
# Gal(b1-3)GlcNAc(b1-2)Man = target: Gal(b1-3)GlcNAc(b1-2)Man
# Method in brief: as §1
# [6] = target: Gal(b1-3)GlcNAc(b1-2)Man(a1-3)[Gal(b1-3)GlcNAc(b1-2)Man(a1-6)]Man(b1-4)GlcNAc(b1-4)GlcNAc
# Method in brief: as §1
# [7] = target: Gal(b1-3)GlcNAc(b1-2)Man(a1-3)[Gal(b1-3)GlcNAc(b1-2)Man(a1-6)]Man(b1-4)GlcNAc(b1-4)[Fuc(a1-6)]GlcNAc
# Method in brief: as §1
# [8] = target: Gal(b1-3)GlcNAc(b1-2)Man(a1-3)[GlcNAc(b1-4)][Gal(b1-3)GlcNAc(b1-2)Man(a1-6)]Man(b1-4)GlcNAc(b1-4)GlcNAc
# Method in brief: as §1
# [9] = target: Gal(b1-3)GlcNAc(b1-2)[Gal(b1-3)GlcNAc(b1-6)]Man(a1-6)[Gal(b1-3)GlcNAc(b1-2)Man(a1-3)]Man(b1-4)GlcNAc(b1-4)GlcNAc
# Method in brief: as §1
# [10] = target: Gal(b1-3)GlcNAc(b1-3)Gal(b1-3)GlcNAc
# Method in brief: as §1
# [11] = target: Gal(b1-3)GlcNAc(b1-3)Gal(b1-4)Glc
# Method in brief: as §1
# [12] = target: Gal(b1-3)GlcNAc(b1-3)Gal(b1-4)GlcNAc
# Method in brief: as §1
# [13] = target: Gal(b1-3)GlcNAc(b1-3)Gal(b1-4)GlcNAc(b1-2)Man(a1-3)[Gal(b1-3)GlcNAc(b1-3)Gal(b1-4)GlcNAc(b1-2)Man(a1-6)]Man(b1-4)GlcNAc(b1-4)GlcNAc
# Method in brief: as §1
# [14] = target: Gal(b1-3)GlcNAc(b1-3)Gal(b1-4)GlcNAc(b1-2)[Gal(b1-3)GlcNAc(b1-3)Gal(b1-4)GlcNAc(b1-6)]Man(a1-6)[Gal(b1-3)GlcNAc(b1-3)Gal(b1-4)GlcNAc(b1-2)Man(a1-3)]Man(b1-4)GlcNAc(b1-4)[Fuc(a1-6)]GlcNAc
# Method in brief: as §1
# [15] = target: Gal(b1-3)GlcNAc(b1-3)Gal(b1-4)GlcNAc(b1-3)Gal(b1-4)GlcNAc(b1-2)[Gal(b1-3)GlcNAc(b1-3)Gal(b1-4)GlcNAc(b1-3)Gal(b1-4)GlcNAc(b1-6)]Man(a1-6)[Gal(b1-3)GlcNAc(b1-3)Gal(b1-4)GlcNAc(b1-3)Gal(b1-4)GlcNAc(b1-2)Man(a1-3)]Man(b1-4)GlcNAc(b1-4)[Fuc(a1-6)]GlcNAc
# Method in brief: as §1
# [16] = target: Gal(b1-3)GlcNAc(b1-3)Gal(b1-4)GlcNAc(b1-6)[Gal(b1-3)GlcNAc(b1-3)]Gal(b1-4)Glc
# Method in brief: as §1
# [17] = target: Gal(b1-3)GlcNAc(b1-3)Gal(b1-4)[Fuc(a1-3)]GlcNAc
# Method in brief: as §1
# [18] = target: Gal(b1-3)GlcNAc(b1-3)Gal(b1-4)[Fuc(a1-3)]GlcNAc(b1-6)[Gal(b1-3)GlcNAc(b1-3)]Gal(b1-4)Glc
# Method in brief: as §1
# [19] = target: Gal(b1-3)GlcNAc(b1-3)GalNAc
# Method in brief: as §1
# [20] = target: Gal(b1-3)GlcNAc(b1-6)Gal(b1-4)GlcNAc
# Method in brief: as §1
# [21] = target: Gal(b1-3)GlcNAc(b1-6)GalNAc
# Method in brief: as §1
# [22] = target: Gal(b1-3)GlcNAc(b1-6)[Gal(b1-3)]GalNAc
# Method in brief: as §1
# Gal(b1-3)GlcNAc6S = target: Gal(b1-3)GlcNAc6S
# Method in brief: as §1
# [23] = target: Gal(b1-3)[Fuc(a1-4)]GlcNAc
# Method in brief: as §1
# [24] = target: Gal(b1-3)[Fuc(a1-4)]GlcNAc(b1-2)Man
# Method in brief: as §1
# [25] = target: Gal(b1-3)[Fuc(a1-4)]GlcNAc(b1-2)Man(a1-3)[Gal(b1-3)[Fuc(a1-4)]GlcNAc(b1-2)Man(a1-6)]Man(b1-4)GlcNAc(b1-4)[Fuc(a1-6)]GlcNAc
# Method in brief: as §1
# [26] = target: Gal(b1-3)[Fuc(a1-4)]GlcNAc(b1-3)Gal(b1-3)[Fuc(a1-4)]GlcNAc
# Method in brief: as §1
# [27] = target: Gal(b1-3)[Fuc(a1-4)]GlcNAc(b1-3)Gal(b1-4)[Fuc(a1-3)]GlcNAc
# Method in brief: as §1
# [28] = target: Gal(b1-3)[Fuc(a1-4)]GlcNAc(b1-6)GalNAc
# Method in brief: as §1
# [29] = target: Gal(b1-3)[GlcNAc(b1-6)]GalNAc
# Method in brief: as §1
# [30] = target: Gal(b1-3)[Neu5Ac(a2-6)]GalNAc
# Method in brief: as §1
# [31] = target: Gal(b1-3)[Neu5Ac(a2-6)]GlcNAc(b1-4)Gal(b1-4)Glc
# Method in brief: as §1
# [32] = target: Gal(b1-3)[Neu5Ac(b2-6)]GalNAc
# Method in brief: as §1
# Gal(b1-4)Gal = target: Gal(b1-4)Gal
# Method in brief: as §1
# [33] = target: Gal(b1-4)GalNAc(a1-3)[Fuc(a1-2)]Gal(b1-4)GlcNAc
# Method in brief: as §1
binder,measurement,setting,value
"Siglec-E (Mus musculus), Q91Y57 (protein) MLLLLLLLLLWGIKGVEGQNPQEVFTLNVERKVVVQEGLCVLVPCNFSYLKKRLTDWTDSDPVHGFWYREGTDRRKDSIVATNNPIRKAVKETRNRFFLLGDPWRNDCSLNIREIRKKDAGLYFFRLERGKTKYNYMWDKMTLVVTALTNTPQILLPETLEAGHPSNLTCSVPWDCGWTAPPIFSWTGTSVSFLSTNTTGSSVLTITPQPQDHGTNLTCQVTLPGTNVSTRMTTRLNVSYAPKNLTVTIYQGADSVSTILKNGSSLPISEGQSLRLICSTDSYPPANLSWSWDNLTLCPSKLSKPGLLELFPVHLKHGGVYTCQAQHALGSQHISLSLSPQSSATLSEMMMGTFVGSGVTALLFLSVCILLLAVRSYRRKPARPAVVAPHPDALKVSVSQNPLVESQADDSSEPLPSILEAAPSSTEEEIHYATLSFHEMKPMNLWGQQDTTTEYSEIKFPQRTAWP",glycan array binding signal (z-score),Gal(b1-3)GalNAc(b1-3)Gal,-0.219
same,glycan array binding signal (z-score),[1],-0.338
same,glycan array binding signal (z-score),[2],0.629
same,glycan array binding signal (z-score),[3],-0.52
same,glycan array binding signal (z-score),Gal(b1-3)GlcNAc,-0.331
same,glycan array binding signal (z-score),[4],-0.363
same,glycan array binding signal (z-score),[5],0.026
same,glycan array binding signal (z-score),Gal(b1-3)GlcNAc(b1-2)Man,-0.592
same,glycan array binding signal (z-score),[6],0.733
same,glycan array binding signal (z-score),[7],0.041
same,glycan array binding signal (z-score),[8],1.56
same,glycan array binding signal (z-score),[9],1.66
same,glycan array binding signal (z-score),[10],-0.216
same,glycan array binding signal (z-score),[11],-0.441
same,glycan array binding signal (z-score),[12],-0.495
same,glycan array binding signal (z-score),[13],-0.459
same,glycan array binding signal (z-score),[14],-0.136
same,glycan array binding signal (z-score),[15],-0.043
same,glycan array binding signal (z-score),[16],-0.172
same,glycan array binding signal (z-score),[17],-0.397
same,glycan array binding signal (z-score),[18],-0.519
same,glycan array binding signal (z-score),[19],0.074
same,glycan array binding signal (z-score),[20],-0.431
same,glycan array binding signal (z-score),[21],-0.473
same,glycan array binding signal (z-score),[22],-0.267
same,glycan array binding signal (z-score),Gal(b1-3)GlcNAc6S,-0.49
same,glycan array binding signal (z-score),[23],-0.47
same,glycan array binding signal (z-score),[24],2.81
same,glycan array binding signal (z-score),[25],0.832
same,glycan array binding signal (z-score),[26],-0.345
same,glycan array binding signal (z-score),[27],-0.466
same,glycan array binding signal (z-score),[28],-0.397
same,glycan array binding signal (z-score),[29],-0.521
same,glycan array binding signal (z-score),[30],-0.109
same,glycan array binding signal (z-score),[31],-0.327
same,glycan array binding signal (z-score),[32],-0.566
same,glycan array binding signal (z-score),Gal(b1-4)Gal,3.25
same,glycan array binding signal (z-score),[33],-0.594
